Experimental data taken from PubChem BioAssay AID1347430 (National Center for Advancing Translational Sciences (NCATS), 2020).
The whole screen tested about 91,000 compounds, of which about 130 (0.14%) were called active. The inconclusive results got no clear call from the source; some entries with a clear call stand among them for comparison. Calls follow the shape of the dose curve; as a rule, active = well fitted inhibition curve with a large enough effect; inconclusive = small, poorly fitted or top-dose-only effect; inactive = flat fitted curve, though single readings scatter. Potencies of inconclusive entries are doubtful fits and often do not repeat.

tested on: Uracil-DNA glycosylase; assay: Primary qHTS assay for inhibitors of Activation Induced Cytidine Deaminase (AID): UDG Counterscreen signal; details: FRET deamination/UDG coupled assay, UDG read, 4 h; activity change, negative = inhibition: at 115 µM (top of the series); also: nearly all actives have a fitted effect of over 65% in size
% is scaled to controls: 0 for no effect and ±100 for the full control effect; potency is read from the fitted curve at half-maximal effect; tags tell the direction and shape of the fitted curve.

| Structure (SMILES) | Potency | activity change, negative = inhibition |
| --- | --- | --- |
| N#Cc1cc2c(=O)n3ccccc3nc2n(-c2nnc(SCc3ccccc3)s2)c1=O | inconclusive: 39.8 µM [inhibitor, partial curve, poor fit] |  |
| Cc1ccc(NC(CNS(=O)(=O)c2ccc(Cl)cc2)c2ccccc2)cc1 (centres undefined) |  | inactive: -22.3% |
| CN1C(=O)Cc2cc(S(=O)(=O)CCC(=O)N3CCN(c4ccc(Cl)cc4)CC3)ccc21 | active: 89.1 µM |  |
| COC(=O)Cc1c(C)c2ccc(OCC(=O)OC(C)(C)C)cc2oc1=O |  | inactive: 1.79% |
| CN(Cc1ccccc1)c1ccc(-c2nc(-c3ccccc3)no2)cc1[N+](=O)[O-] | inconclusive: 89.1 µM [inhibitor, single point] |  |
| Cc1ccc2[nH]c(=O)c3cc(C(=O)N(CCCOC(C)C)Cc4ccco4)sc3c2c1 | inconclusive: 89.1 µM [inhibitor, partial curve, poor fit] |  |
| CCCc1nn2c(=O)cc(COC(=O)C3CCCCC3)nc2s1 | inconclusive: 89.1 µM [inhibitor, single point] |  |
| Cc1ccc(-c2nc(S(=O)(=O)c3ccc(C)cc3)c(SCC(=O)c3ccccc3)o2)cc1 | inconclusive: 100 µM [inhibitor, single point] |  |
| COc1ccc(NC(=O)CSc2n[nH]c(-c3ccccc3)n2)cc1Cl | inconclusive: 89.1 µM [inhibitor, single point] |  |
| Cc1ccc(Cl)cc1N1CCN(S(=O)(=O)c2ccc3c(c2)CC(=O)N3C)CC1 | inconclusive: 39.8 µM [inhibitor, single point] |  |
| O=C(CSc1ncc(-c2ccccc2)o1)NCC1CC1 |  | inactive: -10.9% |
| CCOC(=O)c1c(NC(=O)CCCOc2ccc(C(C)(C)C)cc2)sc2c1CCCC2 | inconclusive: 70.8 µM [inhibitor, partial curve] |  |
| Cc1ccc(C(=O)NCC(c2ccco2)S(=O)(=O)c2cccs2)cc1C (centres undefined) | inconclusive: 89.1 µM [inhibitor, single point] |  |
| COc1cccc(NC(=O)CSc2ncc3c(n2)-c2ccc(Cl)cc2N(C)S3(=O)=O)c1 | inconclusive: 100 µM [inhibitor, partial curve, poor fit] |  |
| Cc1cc(SSc2nc(C)cc(C)n2)nc(C)n1 |  | inactive: 3.87% |
| COc1ccc(C2=C(C)C(=O)N(Cc3ccc(C(=O)Nc4cccc(F)c4)cc3)S2(=O)=O)cc1 | inconclusive: 31.6 µM [inhibitor, partial curve, poor fit] |  |
| CC1=CC(=O)C2(CCCCC2)NC1 |  | inactive: 8.57% |
| CC1CCCN(c2nc3c(S(=O)(=O)c4ccc(C(C)C)cc4)nnn3c3ccsc23)C1 (centres undefined) | inconclusive: 70.8 µM [inhibitor, single point] |  |
| CCCCCCCC/C=C\CCCCCCCC(=O)NCc1ccc(O)c(OC)c1 |  | inactive: -3.59% |
| Cc1ccccc1C(=O)OCc1cc(=O)n2nc(C3CC3)sc2n1 | inconclusive: 100 µM [inhibitor, single point] |  |

| Structure (SMILES) | Potency | activity change, negative = inhibition |
| --- | --- | --- |
| COc1ccccc1NC(=O)Cn1c(=O)n(Cc2cccs2)c(=O)c2cccnc21 | inconclusive: 100 µM [inhibitor, single point] |  |
| Cc1ccc(-n2ncc(C(=O)N3CCC(c4ccccc4)C3)c2C2CCN(C(=O)OC(C)(C)C)CC2)cc1 (centres undefined) | inconclusive: 89.1 µM [inhibitor, single point] |  |
| CCCCOc1ccc(CNC(=O)c2ccc(NC(=O)N3CCSc4ncccc43)cc2)cc1 | inconclusive: 89.1 µM [inhibitor, single point] |  |
| Cc1ccc(S(=O)(=O)C(CNC(=O)C(=O)NCc2ccccc2C)c2cccs2)cc1 (centres undefined) | inconclusive: 89.1 µM [inhibitor, single point] |  |
| Cc1cc(C)c(Cn2c(C3CC(=O)N(c4ccc(F)cc4)C3)nc3ccccc32)c(C)c1 (centres undefined) | inconclusive: 89.1 µM [inhibitor, single point] |  |
| Cc1cccc(-n2ncc3c(N4CCCC(C)C4)ncnc32)c1 (centres undefined) | inconclusive: 89.1 µM [inhibitor, partial curve, poor fit] |  |
| Cc1cccc(NC(=S)NN)c1 | inconclusive: 50.1 µM [inhibitor, partial curve, poor fit] |  |
| Cc1c(C(=O)Nc2cccc(-c3nc4ccccc4s3)c2)oc2ccccc12 | inconclusive: 100 µM [inhibitor, single point] |  |
| CCOC(=O)c1ccccc1NC(=O)COc1ccccc1-c1nnc(-c2ccccc2)o1 | inconclusive: 89.1 µM [inhibitor, single point] |  |
| Cn1c(=O)c2c(nc(N3CCCCCC3)n2CC(=O)c2ccccc2)n(C)c1=O | inconclusive: 100 µM [inhibitor, single point] |  |
| O=C(c1cccc(Br)c1)C(Cl)C(=O)c1cccc(Br)c1 |  | inactive: -6.23% |
| Cc1c(NC(=O)c2cc(-c3cccc(O)c3)on2)c(=O)n(-c2ccccc2)n1C | inconclusive: 100 µM [inhibitor, partial curve, poor fit] |  |
| Cc1ccc(S(=O)(=O)N(CC(=O)NCCc2ccc(Cl)cc2)c2ccccc2C)cc1 | inconclusive: 89.1 µM [inhibitor, single point] |  |
| COc1ccc(CCNC(=O)c2cnn(-c3ccc(F)cc3)c2C2CCN(C(=O)OC(C)(C)C)CC2)c(OC)c1 | inconclusive: 28.2 µM [inhibitor, partial curve, poor fit] |  |
| Cc1cccc(CSc2nc(-c3cccs3)ccc2C#N)c1 | inconclusive: 89.1 µM [inhibitor, single point] |  |
| CCCCOc1ccc(S(=O)(=O)Nc2ccc(-c3ccc(N4CCC(C)CC4)nn3)cc2)cc1 | inconclusive: 63.1 µM [inhibitor, partial curve, poor fit] |  |
| Cc1ccc(NC(=O)c2ccc(CN3C(=O)CCn4nc(C)cc43)cc2)c(Cl)c1 | inconclusive: 89.1 µM [inhibitor, partial curve, poor fit] |  |
| CCOc1ccc(CCNC(=O)C2CCN(C(=O)c3cc4sccc4n3CC)CC2)cc1OCC | inconclusive: 79.4 µM [inhibitor, single point] |  |
| Cc1c(NC(=O)c2cc(-c3ccc(Cl)cc3)on2)c(=O)n(-c2ccccc2)n1C | inconclusive: 79.4 µM [inhibitor, partial curve, poor fit] |  |
